Assay results published in PubChem BioAssay AID1476 (National Center for Advancing Translational Sciences (NCATS), 2009).
In all, about 200,000 compounds went through this assay and about 4,500 (2.2%) were called active. The inconclusive results got no clear call from the source; some entries with a clear call stand among them for comparison. Calls follow the shape of the dose curve; as a rule, active = well fitted inhibition curve with a large enough effect; inconclusive = small, poorly fitted or top-dose-only effect, or effect the other way; inactive = flat fitted curve, though single readings scatter. Potencies beside an inconclusive call are fits to weak or partial responses and may not hold up.

Target: Cruzipain (Trypanosoma cruzi) (UniProt P25779)
UniProt P25779, sequence (P25779 whole entry, looked up): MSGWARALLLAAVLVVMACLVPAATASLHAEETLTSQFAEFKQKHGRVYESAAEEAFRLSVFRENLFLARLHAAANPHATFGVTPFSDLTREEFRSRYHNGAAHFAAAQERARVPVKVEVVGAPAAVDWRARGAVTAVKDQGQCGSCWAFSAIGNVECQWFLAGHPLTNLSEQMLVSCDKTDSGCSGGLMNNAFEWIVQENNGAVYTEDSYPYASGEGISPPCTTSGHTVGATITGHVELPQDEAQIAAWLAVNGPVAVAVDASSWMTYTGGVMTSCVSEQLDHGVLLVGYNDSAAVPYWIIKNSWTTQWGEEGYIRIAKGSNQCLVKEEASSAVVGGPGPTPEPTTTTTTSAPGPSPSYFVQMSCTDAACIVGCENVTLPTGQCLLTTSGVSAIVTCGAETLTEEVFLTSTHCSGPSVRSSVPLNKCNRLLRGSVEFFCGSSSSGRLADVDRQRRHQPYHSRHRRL
Assay: qHTS Assay for Promiscuous and Specific Inhibitors of Cruzain (without detergent); also: nearly all actives have a fitted effect of over 40% in size;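 as to max response, negative = inhibition: plate controls were enzyme without inhibitor for no effect and buffer without enzyme for full effect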
Details: purified cruzain, Z-FR-AMC fluorescence, no detergent
Method in brief: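 Purified cruzain at 1.5 nM, pre-incubated 15 min with compound at room temperature in 100 mM sodium acetate pH 5.5, 5 mM DTT, 0.00005% Triton X-100. Reaction started with 2 uM Z-FR-AMC; AMC fluorescence increase over 60 s gives rate.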
Potency is read from the fitted curve at half-maximal effect; tags tell the direction and shape of the fitted curve.

SMILES | Potency | max response, negative = inhibition
COc1ccc(Cn2c(SCc3ccc(C(=O)NCc4ccc(C)cc4)cc3)nc3cccnc32)cc1 | inconclusive: 20 µM [inhibitor, single point] | –
CC(=O)Nc1ccc(Nc2ncnc3c2cnn3-c2cccc(C)c2)cc1 | inconclusive: 39.8 µM [activator, single point] | –
COc1ccc(C(=O)CC2(O)C(=O)N(Cc3ccccc3)c3ccc(Br)cc32)cc1 (stereo unspecified) | – | inactive: -9.51%
CCOC(=O)C(C)CC(C)C(=O)N1CCOCCN(C(=O)C(C)CC(C)C(=O)OCC)CCOCC1 (stereo unspecified) | inconclusive: 25.1 µM [activator, single point] | –
COc1nccnc1NS(=O)(=O)c1ccc(NC(=S)NC(=O)/C=C/c2ccc(F)cc2)cc1 | inconclusive: 31.6 µM [inhibitor, single point] | –
N#C/C(=C\Nc1ccccc1SC(F)(F)F)c1nc(-c2ccccc2)cs1 | inconclusive: 31.6 µM [inhibitor, single point] | –
COc1ccc(CNC(=O)CN2N=C(c3ccc(Cl)cc3)CCC2=O)cc1 | inconclusive: 25.1 µM [activator, single point] | –
Cc1cc(C)c(NC(=O)Cn2c(=O)n(CCC(C)C)c(=O)c3cccnc32)c(C)c1 | – | inactive: -9.9%
COc1ccc(Cn2c(O)c(C=Nc3ccccc3)c3ccccc3c2=O)cc1 | inconclusive: 39.8 µM [inhibitor, single point] | –
CC(=NC1CCCC1)c1c(C)[nH]n(-c2nc3ccccc3s2)c1=O | inconclusive: 31.6 µM [activator, single point] | –
O=C(Nc1nc(-c2ccc(F)cc2)cs1)C1CCCO1 (stereo unspecified) | – | inactive: -5.16%
CCOC(=O)c1c(Nc2ccc(C)c(C)c2)nnc(-c2ccccc2)c1-c1ccccc1 | inconclusive: 39.8 µM [inhibitor, single point] | –
CCCCOC(=O)c1ccc(NC(=O)c2ocnc2C)cc1 | inconclusive: 39.8 µM [activator, single point] | –
Cc1ccc(NC(=O)C(=O)NC2CCCCC2)cc1 | inconclusive: 39.8 µM [inhibitor, single point] | –
O=C(NCc1ccc2c(c1)OCO2)c1ccc(C2SCC(=O)N2Cc2ccco2)cc1 (stereo unspecified) | inconclusive: 20 µM [inhibitor, single point] | –
Cn1c(-c2c(N)n(CCCc3ccccc3)c3nc4ccccc4nc23)nc2ccccc21 | inconclusive: 39.8 µM [inhibitor, single point] | –
Cc1cc(C)cc(NC(=O)Cn2nnc(-c3ccccc3F)n2)c1 | – | inactive: -16.5%
Cc1ccc(CN2C(=O)C3CCCN3c3ccc(C#N)cc32)cc1 (stereo unspecified) | active: 10 µM | –
O=C(NCc1ccco1)c1sc2cc(F)ccc2c1Cl | inconclusive: 25.1 µM [inhibitor, single point] | –
CC1=C(c2ccc(C)c(C)c2)S(=O)(=O)N(Cc2ccc(C(=O)NCc3ccccc3F)cc2)C1=O | active: 25.1 µM | –
Cc1nc2ccccn2c1C(=O)N=Nc1c(O)n(CCC(C)C)c2ccccc12 | inconclusive: 31.6 µM [activator, single point] | –
CCn1c(C)cc(/C=C2\SC(=O)N(CC(=O)Nc3ccc(C)c(C)c3)C2=O)c1C | active: 15.8 µM | –

SMILES | Potency | max response, negative = inhibition
CCn1nc(C)c2c(-c3ccccc3)cc(=O)n(C(C)C(=O)Nc3ccc(OC)c(OC)c3)c21 (stereo unspecified) | inconclusive: 12.6 µM [activator, partial curve] | –
COc1cc(/C=N/N2C(=O)c3ccccc3NC2(C)c2cccc([N+](=O)[O-])c2)cc(Br)c1O (stereo unspecified) | inconclusive: 31.6 µM [inhibitor, single point] | –
Nn1c(Cc2cccc3ccccc23)nnc1SCn1nnc2ccccc2c1=O | inconclusive: 39.8 µM [inhibitor, single point] | –
CC(=O)Nc1ccc(N2CCCCC2)c(C(=O)Nc2cccc(C)c2)c1 | inconclusive: 39.8 µM [activator, single point] | –
Cc1ccc(Cl)cc1N1CCN(C(=O)C2CCN(S(=O)(=O)c3cnc[nH]3)CC2)CC1 | inconclusive: 39.8 µM [activator, single point] | –
COC(=O)C1=C(C)N(CCc2ccccc2)C(=O)C1(NS(=O)(=O)c1ccc(NC(C)=O)cc1)C(F)(F)F (stereo unspecified) | inconclusive: 31.6 µM [activator, single point] | –
CCCCCn1c(N)c(-c2nc3ccccc3o2)c2c([N+](=O)[O-])nn(CC)c(=O)c21 | active: 10 µM | –
Cc1cc(N2CCN(c3ccccc3)CC2)nc(-c2ccccc2O)n1 | inconclusive: 39.8 µM [inhibitor, single point] | –
Cc1ccc(CNC(=O)CSc2c(C)cnc3c2c(=O)n(C)c(=O)n3C)cc1 | – | inactive: -5.95%
C#CCOCCOCCOCCNc1nc(N2CCN(C(=O)[C@H]([C@@H](C)CC)n3cc(CCCN=C(N)N)nn3)CC2)nc(N2CCN(C(=O)[C@H](C)n3cc(CCCN=C(N)N)nn3)CC2)n1 | inconclusive: 39.8 µM [inhibitor, single point] | –
COC(=O)c1cc(NC(=O)Nc2cc(OC)ccc2OC)cc(C(=O)OC)c1 | inconclusive: 39.8 µM [activator, single point] | –
Cn1c(CS/C(N)=N/N=C/c2ccccc2)c(Br)c(=O)n1-c1ccccc1 | active: 31.6 µM | –
CC(C)(C)n1nnnc1CN(Cc1cccnc1)Cc1ccccc1Cl | – | inactive: 3.33%
N#Cc1c(NC(=O)COC(=O)c2ccc(F)cc2)sc2c1CCC2 | inconclusive: 25.1 µM [inhibitor, single point] | –
COc1ccc(-n2nc3c(c2NC(=O)C24CC5CC(CC(C5)C2)C4)CS(=O)C3)cc1 (stereo unspecified) | – | inactive: -3.22%
CC1(c2ccccc2)CC(C)(C)N2C(=O)/C(=C3\SC(=S)NC3=O)c3cccc1c32 (stereo unspecified) | active: 7.94 µM | –
N#CC1=C(N)OC2=C(C(=O)CC(c3ccco3)C2)C1c1ccc(OCc2c(F)cccc2Cl)cc1 (stereo unspecified) | inconclusive: 39.8 µM [inhibitor, single point] | –
Cc1cccc(Cc2c(C)nc3nc(SCC(=O)NCc4ccccc4)nn3c2C)c1 | – | inactive: 1.99%
CCC(=O)N1CCc2cc(Br)cc(S(=O)(=O)N3CCCC(C(=O)Nc4cccc(F)c4)C3)c21 (stereo unspecified) | – | inactive: -9.04%
Cn1c(=O)c2c(nc(CN3CCc4ccccc4C3)n2Cc2ccccc2)n(C)c1=O | inconclusive: 39.8 µM [activator, single point] | –
NNC(=O)CCS(=O)(=O)c1ccc2ccccc2c1 | inconclusive: 25.1 µM [inhibitor, single point] | –
COc1ccc(C2N(C(=O)c3ccccc3)CCN2C(=O)c2ccc(C)cc2)cc1 (stereo unspecified) | – | inactive: 0.779%

SMILES | Potency | max response, negative = inhibition
N#Cc1sc2nc3c(cc2c1N)CCCC3 | – | inactive: -4.03%
COc1ccc(CCNC(=O)Cn2ncc3c(=O)oc4ccccc4c32)c(OC)c1 | – | inactive: -5.97%
COc1ccc(/C=C2/N=C(c3cccs3)OC2=O)cc1OC(C)C | – | inactive: 7.58%
CCOc1ccc(NC(=O)c2cnc(Nc3ccccc3OC)c3ccccc23)cc1 | – | inactive: 6.33%
C[C@@](O)(CNS(=O)(=O)c1ccccc1)c1ccccc1 | – | inactive: 1.46%
Clc1ss/c(=N\c2ccccn2)c1Cl | active: 25.1 µM | –
CC(C)C1CCC(C(=O)NC(Cc2ccccc2)C(=O)O)CC1 (stereo unspecified) | inconclusive: 39.8 µM [activator, single point] | –
Cc1ccc(NC(=S)NC(=O)c2ccc(F)cc2)cc1S(=O)(=O)Nc1ccccc1Cl | inconclusive: 15.8 µM [inhibitor, single point] | –
O=C(c1ccc(Cl)c(S(=O)(=O)Nc2ccccc2C(=O)N2CCc3ccccc3C2)c1)N1CCc2ccccc2C1 | inconclusive: 31.6 µM [inhibitor, single point] | –
O=C(/C=C/c1ccco1)N/C(=C\c1ccccc1)C(=O)NCCc1nc2ccccc2[nH]1 | – | inactive: -18.4%
COc1ccc(OC)c(/C=C/C(=O)Nc2ccc(C(=O)OCCC(C)C)cc2)c1 | inconclusive: 39.8 µM [inhibitor, single point] | –
Cc1ccccc1CN1C(=O)c2ccccc2Sc2ccc(C(=O)NC3CCCC3)cc21 | – | inactive: 8.07%
Cc1cc(C(=O)CSc2nnc(N)s2)c(C)n1CCc1ccc(F)cc1 | active: 15.8 µM | –
COc1ccccc1CNC(=O)CC(c1ccc(OC)c(OC)c1)N1Cc2ccccc2C1=O (stereo unspecified) | – | inactive: -10.3%
CCc1cnc2c(c1SCC(=O)c1ccc(OC)cc1)c(=O)n(C)c(=O)n2C | inconclusive: 39.8 µM [activator, single point] | –
CC1CCN(c2nc(-c3ccco3)c3c(c2C#N)CC(C)(C)OC3)CC1 | inconclusive: 39.8 µM [activator, single point] | –
CCN(CC)C(=O)CSc1nc2ccc(NC(=O)CSc3nnc(COc4ccccc4C)n3C)cc2s1 | inconclusive: 39.8 µM [activator, single point] | –
Cc1c(-c2ccc(Cl)cc2)c(=O)oc2ccc(OC(=O)N3CCOCC3)cc12 | inconclusive: 39.8 µM [activator, single point] | –
C/C(=N/N1CCN(c2ccccn2)CC1)c1ccc([N+](=O)[O-])cc1 | – | inactive: 0.493%
C=CCC(O)c1ccccc1 (stereo unspecified) | – | inactive: -7.92%
CCc1ccc(S(=O)(=O)N(C(=O)Oc2ccccc2)c2ccc3oc(C)c(C(=O)OC)c3c2)cc1 | inconclusive: 7.94 µM [inhibitor, full curve, poor fit] | –
CCOC(=O)c1c(NC(=O)CSc2nnc(-c3cccnc3)o2)sc(C(C)=O)c1C | inconclusive: 39.8 µM [activator, single point] | –
